Test results: the supplement of paper PMC4967469
Lines with a small IC50 respond at low doses; where the fit passes the top or lowest dose, that dose stands as a limit. For AUC the same curve is integrated over the 256-fold range of doses and scaled to a fraction; the more sensitive the line, the further below 1. For some assays here: The top dose, if marked as inferred, was derived from the fitted curves, not read from the paper.

How the values were obtained:
Assay in all cases: Viability of human cancer cell lines after 72 h of drug (GDSC screen)
[1] = compound: CC(=O)Nc1nc(C)c(-c2ccc(Cl)c(S(=O)(=O)NCCO)c2)s1 [PIK-93]; conditions: top dose 20 µM
Procedure: (§1)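 Human cancer cell lines in 384-well plates, medium with 10% serum, drug for 72 h over a 256-fold dose range (nine 2-fold or five 4-fold steps up to the top dose). Adherent lines were fixed and stained with the nucleic acid dye Syto60, suspension lines read with resazurin; signal relative to control wells, capped at 0 and 100%. One two-parameter sigmoid per drug and line, fitted in a mixed model over all curves with the slope shared within a line.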

[2] = compound: CC1(C)CCC(c2ccc(Cl)cc2)=C(CN2CCN(c3ccc(C(=O)NS(=O)(=O)c4ccc(N[C@H](CCN5CCOCC5)CSc5ccccc5)c(S(=O)(=O)C(F)(F)F)c4)cc3)CC2)C1 [ABT-263]; conditions: top dose 2 µM; top dose inferred
Procedure: as §1

[3] = compound: COc1cc(/C=C/C(=O)N2CCC=CC2=O)cc(OC)c1OC [piperlongumine]; conditions: top dose 10 µM
Procedure: as §1

[4] = compound: COc1cc2ncn(-c3cc(OCc4ccccc4C(F)(F)F)c(C(N)=O)s3)c2cc1OC [GW843682X]; conditions: top dose 0.256 µM
Procedure: as §1

[5] = compound: Cn1cc(/C=C2\C(=O)Nc3cccnc32)c2ccccc21 [GW 441756]; conditions: top dose 2 µM; top dose inferred
Procedure: as §1

[6] = compound: O=C(/C=C/c1ccccc1)NC(NC(=S)Nc1cccc2cccnc12)C(Cl)(Cl)Cl [Salubrinal]; conditions: top dose 16 µM; top dose inferred
Procedure: as §1

| Cell Line | AUC [1] | IC50 [1] [nM] | AUC [2] | IC50 [2] [nM] | AUC [3] | IC50 [3] [nM] | AUC [4] | IC50 [4] [nM] | AUC [5] | IC50 [5] [nM] | AUC [6] | IC50 [6] [nM] |
| --- | --- | --- | --- | --- | --- | --- | --- | --- | --- | --- | --- | --- |
| NMC-G1 (glioma, adherent) | 0.781 | 10300 | 0.779 | 1010 | 0.769 | 4630 | 0.783 | 134 | 0.964 | > 2000 | 0.873 | > 16000 |
| CA46 (Burkitt lymphoma, suspension) | 0.614 | 2640 | 0.985 | > 2000 | 0.738 | 3160 | 0.906 | > 256 | 0.985 | > 2000 | 0.86 | 15100 |
| NB-4 (acute myeloid leukaemia, suspension) | 0.21 | 218 | 0.857 | 1180 | 0.658 | 1560 | 0.237 | 3.32 | 0.991 | > 2000 | 0.843 | 8470 |
| CCRF-CEM (lymphoblastic leukaemia, suspension) | 0.136 | 119 | 0.24 | 26 | 0.687 | 1890 | 0.394 | 8.62 | 0.982 | > 2000 | 0.908 | 16000 |
| TE-15 (oesophagus, suspension) | 0.751 | 7330 | 0.941 | > 2000 | 0.844 | 8580 | 0.392 | 7.74 | 0.985 | > 2000 | 0.96 | > 16000 |
| LP-1 (myeloma, suspension) | 0.408 | 733 | 0.923 | > 2000 | 0.823 | 4610 | 0.697 | 51 | 0.993 | > 2000 | 0.719 | 3660 |
| D-336MG (glioma, adherent) | 0.86 | > 20000 | 0.966 | > 2000 | 0.75 | 4100 | 0.828 | 224 | 0.973 | > 2000 | 0.873 | > 16000 |
| BC-1 (B-cell lymphoma, suspension) | 0.809 | 8580 | 0.962 | > 2000 | 0.733 | 2550 | 0.857 | 161 | 0.984 | > 2000 | 0.902 | 15500 |
| JM1 (B-cell lymphoma, suspension) | 0.647 | 2990 | 0.635 | 278 | 0.622 | 1290 | 0.485 | 14.7 | 0.173 | 15.7 | 0.944 | > 16000 |
| SK-MEL-1 (melanoma, suspension) | 0.962 | > 20000 | 0.931 | > 2000 | 0.965 | > 10000 | 0.946 | > 256 | 0.993 | > 2000 | 0.98 | > 16000 |
| NCI-H322M (lung adenocarcinoma, suspension) | 0.88 | > 20000 | 0.972 | > 2000 | 0.951 | > 10000 | 0.977 | > 256 | 0.986 | > 2000 | 0.976 | > 16000 |
| TE-6 (oesophagus, adherent) | 0.906 | > 20000 | 0.97 | > 2000 | 0.985 | > 10000 | 0.505 | 16.6 | 0.965 | > 2000 | 0.942 | > 16000 |
| SLVL (B-cell lymphoma, suspension) | 0.337 | 426 | 0.872 | > 2000 | 0.935 | > 10000 | 0.731 | 75.9 | 0.506 | 130 | 0.929 | > 16000 |
| NKM-1 (acute myeloid leukaemia, suspension) | 0.294 | 322 | 0.212 | 17.3 | 0.792 | 4680 | 0.802 | 130 | 0.939 | > 2000 | 0.802 | 8130 |
| LB771-HNC (head and neck, adherent) | 0.847 | > 20000 | 0.978 | > 2000 | 0.848 | > 10000 | 0.709 | 72.9 | 0.897 | > 2000 | 0.905 | > 16000 |
| AM-38 (glioma, semi-adherent) | 0.812 | 11000 | 0.84 | 1420 | 0.822 | 5980 | 0.988 | > 256 | 0.973 | > 2000 | 0.964 | > 16000 |

| Cell Line | AUC [1] | IC50 [1] [nM] | AUC [2] | IC50 [2] [nM] | AUC [3] | IC50 [3] [nM] | AUC [4] | IC50 [4] [nM] | AUC [5] | IC50 [5] [nM] | AUC [6] | IC50 [6] [nM] |
| --- | --- | --- | --- | --- | --- | --- | --- | --- | --- | --- | --- | --- |
| EW-16 (Ewing sarcoma, adherent) | 0.489 | 1170 | 0.751 | 685 | 0.664 | 1830 | 0.485 | 14.6 | 0.973 | > 2000 | 0.966 | > 16000 |
| CESS (acute myeloid leukaemia, suspension) | 0.135 | 114 | 0.936 | > 2000 | 0.827 | 4960 | 0.352 | 6.64 | 0.986 | > 2000 | 0.872 | – |
| CL-11 (large intestine, adherent) | 0.961 | > 20000 | 0.922 | > 2000 | 0.819 | 6650 | 0.941 | > 256 | 0.987 | > 2000 | 0.983 | > 16000 |
| NB1 (neuroblastoma, semi-adherent) | 0.833 | 14800 | 0.964 | > 2000 | 0.785 | 4740 | 0.615 | 34.4 | 0.951 | > 2000 | 0.884 | > 16000 |
| NCI-H1395 (lung adenocarcinoma, adherent) | 0.889 | > 20000 | 0.981 | > 2000 | 0.929 | > 10000 | 0.842 | > 256 | 0.958 | > 2000 | 0.841 | > 16000 |
| RKO (large intestine, adherent) | 0.753 | 6260 | 0.982 | > 2000 | 0.788 | 4050 | 0.417 | 9.63 | 0.988 | > 2000 | 0.925 | > 16000 |
| NCI-H1092 (small cell lung carcinoma, suspension) | 0.93 | > 20000 | 0.653 | 334 | 0.827 | 6180 | 0.866 | 231 | 0.99 | > 2000 | 0.97 | > 16000 |
| SW684 (fibrosarcoma, adherent) | 0.983 | > 20000 | 0.974 | > 2000 | 0.842 | > 10000 | 0.932 | > 256 | 0.983 | > 2000 | 0.98 | > 16000 |
| GR-ST (lymphoblastic leukaemia, suspension) | 0.436 | 804 | 0.974 | > 2000 | 0.695 | 2490 | 0.651 | 46.1 | 0.978 | > 2000 | 0.904 | > 16000 |
| KARPAS-422 (B-cell lymphoma, suspension) | 0.687 | 4140 | 0.765 | 723 | 0.808 | 5070 | 0.835 | 166 | 0.959 | > 2000 | 0.931 | > 16000 |
| OCI-LY-19 (B-cell lymphoma, suspension) | 0.212 | 195 | 0.385 | 61.9 | 0.839 | 6080 | 0.475 | 13.8 | 0.501 | 126 | 0.915 | > 16000 |
| P32-ISH (Burkitt lymphoma, suspension) | 0.558 | 1730 | 0.993 | > 2000 | 0.72 | 2170 | 0.408 | 9.55 | 0.995 | > 2000 | 0.884 | 10000 |
| PSN1 (pancreas, adherent) | 0.708 | 4310 | 0.972 | > 2000 | 0.704 | 2100 | 0.348 | 6.55 | 0.973 | > 2000 | 0.937 | > 16000 |
| BV-173 (chronic myeloid leukaemia, suspension) | 0.857 | 13200 | 0.139 | 11.4 | 0.763 | 3200 | 0.522 | 18.3 | 0.964 | > 2000 | 0.837 | 8970 |
| GT3TKB (stomach, adherent) | 0.962 | > 20000 | 0.981 | > 2000 | 0.568 | 939 | 0.405 | 9.09 | 0.99 | > 2000 | 0.917 | > 16000 |
